# Assay results as given in patent publication US20230312722A1 (NONA BIOSCIENCES SUZHOU, published 2023).
# T1: B7-H4 (Acro Biosystems, #B74-H82E2) (UniProt Q7Z7D3 29-258)
# T1 construct: Bought protein; also called B7-H4 captured on SA sensor
# T1 sequence (looked up): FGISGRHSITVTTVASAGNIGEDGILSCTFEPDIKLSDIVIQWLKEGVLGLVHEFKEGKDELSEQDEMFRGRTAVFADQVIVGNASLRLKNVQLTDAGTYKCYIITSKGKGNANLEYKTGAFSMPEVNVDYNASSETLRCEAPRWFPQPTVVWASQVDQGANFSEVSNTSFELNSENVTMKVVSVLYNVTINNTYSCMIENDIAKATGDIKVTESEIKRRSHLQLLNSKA
# T2: B7-H6/NCR3LG1 Protein, Human, Recombinant (Fc Tag) (Sino Biological 16140-H02H) (human, UniProt Q68D85 25-262)
# T2 construct: Bought protein
# T2 sequence (looked up): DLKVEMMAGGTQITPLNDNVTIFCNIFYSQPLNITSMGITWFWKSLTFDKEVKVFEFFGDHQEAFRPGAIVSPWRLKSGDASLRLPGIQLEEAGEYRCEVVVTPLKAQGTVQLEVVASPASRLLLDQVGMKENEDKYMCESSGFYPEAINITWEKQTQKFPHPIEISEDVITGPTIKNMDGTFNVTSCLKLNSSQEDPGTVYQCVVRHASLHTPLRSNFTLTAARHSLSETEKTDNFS
# T3: mouse B7H4 on the cell surface (mouse, UniProt Q7TSP5 25-257)
# T3 construct: whole, on cells; also called CHOK1/m B7H4
# T3 sequence (looked up): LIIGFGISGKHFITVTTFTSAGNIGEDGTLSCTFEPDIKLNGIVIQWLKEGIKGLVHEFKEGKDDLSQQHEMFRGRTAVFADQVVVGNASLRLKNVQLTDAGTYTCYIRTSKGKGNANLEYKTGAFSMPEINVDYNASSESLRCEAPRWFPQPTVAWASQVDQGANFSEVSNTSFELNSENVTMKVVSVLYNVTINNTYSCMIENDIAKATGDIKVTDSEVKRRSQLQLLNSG
# B1: PR002421 (antibody, human IgG1, kappa)
# heavy: QVQLVQSGAEVKKPGSSMRVSCKASEDTFSSYAISWVRQAPGQGLEWMGGTAPIFGTTNYAQKFQGRVTITADKSTSTAYMELSSLRSEDTAVYYCARGGPYFDYWGQGTLVTVSSASTKGPSVFPLAPSSKSTSGGTAALGCLVKDYFPEPVTVSWNSGALTSGVHTFPAVLQSSGLYSLSSVVTVPSSSLGTQTYICNVNHKPSNTKVDKKV[human IgG1 Fc with changes not written out]
# light: EIVMTQSPASLSVSPGERATLSCRASQSVSSNLAWYQQKPGQAPRLLIYGASTRATGIPARVSGGGSGTEFTLTISSLQSEDFAVYYCQQYKNWPFTFGPGTKLEIKRTVAAPSVFIFPPSDEQLKSGTASVVCLLNNFYPREAKVQWKVDNALQSGNSQESVTEQDSKDSTYSLSSTLTLSKADYEKHKVYACEVTHQGLSSPVTKSFNRGEC
# notes: PTM variant/DE mutant of PR002037 (L: C87Y; Fc S239D, I332E), human IgG1; also called RP002421
# Assays:
# [1] = target: T1, B7-H4 (Acro Biosystems, #B74-H82E2); assay: BLI epitope competition; 1st Ab = row; competitor (2nd Ab) PR002418; inhibition of the 2nd Ab signal
# Procedure: Step one, acquisition of 100% signal of antibodies: B7-H4 (Acro Biosystems, #B74-H82E2-200 μg) was captured at a capture height of 0.25 nm using an SA sensor (Fortebio, #18-5019). The sensor was equilibrated in a buffer for 120 s and then immersed in each antibody diluted to 100 nM for 240 s, and the final signal of the antibody binding to B7-H4 was recorded as the 100% signal of the antibody. Step two, epitope competition experiment: B7-H4 was captured using an SA sensor at a capture height of 0.25 nm. The sensor was immersed in a primary antibody (at a concentration of 100 nM) for 240 s, and then the SA sensor was immersed in a mixture of the primary and secondary antibodies (both at a final concentration of 100 nM) for 240 s, and the difference in signals after immersion of the sensor in the antibody mixture was recorded as the signal of the antibody as the secondary antibody. The inhibition rate was calculated according to the following formula: […]
# [2] = target: T2, B7-H6/NCR3LG1 Protein, Human, …; assay: ELISA, plate coated with 1 µg/mL B7 family protein
# Procedure: The proteins of the B7 family (see Table 9-1 for details) were each diluted to 1 μg/mL with PBS, added to a 96-well plate (Corning, #9018) at 100 μL per well, and incubated overnight at 4° C. After the liquid was discarded, the plate was washed 3 times with PBST buffer (pH 7.4, containing 0.05% tween-20), and 250 μL of 2% BSA blocking buffer was added. The plate was incubated at 37° C. for 1 hour. The blocking buffer was discarded, and the plate was washed 3 times with PBST buffer (pH 7.4, containing 0.05% Tween-20). The test antigen-binding protein was diluted to 2 concentrations: 10 nM and 1 nM, and added at 100 μL per well. The plate was incubated at 37° C. for 1 hour. An isotype antibody was taken as a control. After the plate was washed 3 times with PBST buffer (pH 7.4, containing 0.05% Tween-20), the plate was added with a 5000-fold diluted goat anti-human F(ab′)₂ HRP secondary antibody (Jackson ImmunoResearch, 109-035-097), and incubated at 37° C. away from light for 1 hour. After the plate was washed 3 times with PBST buffer (pH 7.4, containing 0.05% Tween-20), TMB (Biopanda, #TMB-S-003) was added at 100 μL/well. The plate was left away from light at room temperature for about 30 minutes. The reactions were terminated by adding 50 μL of stop buffer (BBI life sciences, #E661006-0200) to each well, and the absorbance values at 450 nm (OD450) was measured using a microplate reader (PerkinElemer, #Enspire).
# [3] = target: T3, mouse B7H4 on the cell surface; assay: FACS, CHOK1/m B7H4 cells
# Procedure: This example is intended to investigate the in vitro binding activity of anti-human B7H4 H2L2 monoclonal antibody to human/cynomolgus monkey/mouse B7H4. Antibody binding experiments at the cellular level were performed using CHOK1 cell line overexpressing human B7H4 (CHOK1/hu B7H4, Harbour BioMed), CHOK1 cell line overexpressing cynomolgus monkey B7H4 (CHOK1/cyno B7H4, Harbour BioMed), CHOK1 cell line overexpressing mouse B7H4 (CHOK1/m B7H4, Harbour BioMed) and SK-BR-3 cell line (ATCC® HTB-30) highly expressing human B7H4. Briefly, CHOK1/hu B7H4 cells, CHOK1/cyno B7H4 cells, CHOK1/m B7H4 cells or SK-BR-3 cells were digested and resuspended with PBS containing 2% BSA. The cell density was adjusted to 1×10⁶ cells/mL. The cells were seeded in a 96-well V-bottom plate (Corning, #3894) at 100 μL/well, followed by the addition of test antibodies diluted in a 3-fold concentration gradient of 2 times the final concentration, each at 100 μL/well. The cells were incubated at 4° C. for 2 h away from light. Thereafter, the cells in each well were rinsed twice with 100 μL of pre-cooled PBS containing 2% BSA, and centrifuged at 500 g at 4° C. for 5 min, and then the supernatant was discarded. Then 100 μL of a fluorescent secondary antibody (Alexa Fluor 488-conjugated AffiniPure Goat Anti-Human IgG, Fcγ Fragment Specific, Jackson, #109-545-098, 1:500 diluted) was added to each well. The plate was incubated away from light at 4° C. for 1 h. The cells in each well were washed twice with 100 μL of pre-cooled PBS containing 2% BSA, and centrifuged at 500 g at 4° C. for 5 minutes, and then the supernatant was discarded. Finally, the cells in each well were resuspended with 200 μL of pre-cooled PBS containing 2% BSA, and the fluorescence signal values were read using an ACEA Novocyte3000 flow cytometer.
binder,measurement,setting,value
B1,Competitive inhibition rate (%),[1],7.12%
same,binding result,[2],no binding (tested: 10 nM)
same,EC50,[3],1.99 nM
same,Maximum MFI,[3],1.46e+06 MFI
